Results as given in PubChem BioAssay AID340 (DTP/NCI, 2004).
Toxic doses and inconclusive results are not listed. The source holds more than one record for some entries. The list is limited to them. An entry can have further records. Results that share an entry are repeats in other runs, samples, wells, individuals or studies.

System: CD2F1 mice, ip reticulum cell sarcoma, survival T/C
Assay: NCI In Vivo Anticancer Drug Screen. Data for tumor model Reticulum Cell Sarcoma (Kelley Mouse) (intraperitoneal) in CD2F1 (CDF1) mice
Details: endpoint: median survival time, schedule: Q01DX010 (ip), vehicle: saline, higher = longer survival
Description: The antitumor activity of compounds was measured in mice bearing transplantable tumors. Survival or tumor size were measured and the results are expressed as the measurement made in the treated group (T) divided by the measurement made in the vehicle treated control group (C). The tumor model used in this assay is Reticulum Cell Sarcoma (Kelley Mouse) (intraperitoneal) in CD2F1 (CDF1) mice

Nc1nc(SCc2ccccc2)c2[nH]cnc2n1
T/C (dose: 32.0 mg/kg/injection): 106 % of control and 190 % of control

CN(C)c1ccc(Nc2c3ccccc3nc3ccccc23)cc1
T/C (dose: 36.0 mg/kg/injection): 110 % of control and 162 % of control

C1CN1c1nc(N2CC2)nc(N2CC2)n1
T/C (dose: 0.5 mg/kg/injection): 106 % of control and 170 % of control

S=P(N1CCOCC1)(N1CC1)N1CC1
T/C (dose: 20.0 mg/kg/injection): 112 % of control and 162 % of control

O=C(Nc1ccc(C2=NCCN2)cc1)c1ccc(C(=O)Nc2ccc(C3=NCCN3)cc2)c([N+](=O)[O-])c1
T/C (dose: 18.0 mg/kg/injection): 89 % of control and 189 % of control

OCC1OC(n2cnc3c(=S)nc[nH]c32)C(O)C1O (stereo unspecified)
T/C (dose: 40.0 mg/kg/injection): 123 % of control and 172 % of control
